Measurements taken from publication PMC4752240.
Changes are numbered by the printed parent chain. Numbers in names are those of the source. Results are given in words; binding and its absence hold for the method and conditions named. For some of these results: Binding seen in cells or lysates may run through a third protein. Some entries that bind do so weakly or less than the wild type. Sequences can lack the tags named with a protein. Each block holds one binder with its values, some of them ahead of it.

Assays:
[1] = molecular target: T1, CDC27b (HOBBIT/APC3b), yeast two-hybrid fusion (UniProt Q8LGU6); experiment: two-hybrid; bait fused with the GAL4 DNA binding domain (pDEST32), prey fused with the GAL4 activation domain (pDEST22); mating of yeast strains AH109 and Y187; growth on -His (weak interaction) or -His -Ade (strong interaction); three replicates
T1 sequence: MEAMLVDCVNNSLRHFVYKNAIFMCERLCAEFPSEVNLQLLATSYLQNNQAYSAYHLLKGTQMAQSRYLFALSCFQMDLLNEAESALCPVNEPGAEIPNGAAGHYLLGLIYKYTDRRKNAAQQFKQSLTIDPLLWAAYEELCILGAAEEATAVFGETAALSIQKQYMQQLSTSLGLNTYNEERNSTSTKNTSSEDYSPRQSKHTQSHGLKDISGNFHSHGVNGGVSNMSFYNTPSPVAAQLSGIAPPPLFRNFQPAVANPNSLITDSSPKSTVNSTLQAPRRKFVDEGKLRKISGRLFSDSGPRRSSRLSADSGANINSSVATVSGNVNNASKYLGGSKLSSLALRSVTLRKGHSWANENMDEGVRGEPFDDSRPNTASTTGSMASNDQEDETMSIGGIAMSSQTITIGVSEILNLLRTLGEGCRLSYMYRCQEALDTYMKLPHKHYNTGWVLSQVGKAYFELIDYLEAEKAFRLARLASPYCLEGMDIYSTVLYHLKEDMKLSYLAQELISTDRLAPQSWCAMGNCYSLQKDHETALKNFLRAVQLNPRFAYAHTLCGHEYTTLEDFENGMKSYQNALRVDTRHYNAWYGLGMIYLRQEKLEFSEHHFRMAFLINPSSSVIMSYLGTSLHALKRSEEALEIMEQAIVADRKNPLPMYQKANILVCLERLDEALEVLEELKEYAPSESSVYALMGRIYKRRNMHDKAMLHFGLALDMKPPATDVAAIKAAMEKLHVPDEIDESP

[2] = molecular target: TDM1-P17L, yeast two-hybrid fusion (Arabidopsis thaliana) (UniProt Q9SUC3); experiment: as above
[3] = molecular target: T2, TDM1 (THREE DIVISION MUTANT1), yeast two-hybrid fusion (Arabidopsis thaliana) (UniProt Q9SUC3); experiment: as above
T2 sequence: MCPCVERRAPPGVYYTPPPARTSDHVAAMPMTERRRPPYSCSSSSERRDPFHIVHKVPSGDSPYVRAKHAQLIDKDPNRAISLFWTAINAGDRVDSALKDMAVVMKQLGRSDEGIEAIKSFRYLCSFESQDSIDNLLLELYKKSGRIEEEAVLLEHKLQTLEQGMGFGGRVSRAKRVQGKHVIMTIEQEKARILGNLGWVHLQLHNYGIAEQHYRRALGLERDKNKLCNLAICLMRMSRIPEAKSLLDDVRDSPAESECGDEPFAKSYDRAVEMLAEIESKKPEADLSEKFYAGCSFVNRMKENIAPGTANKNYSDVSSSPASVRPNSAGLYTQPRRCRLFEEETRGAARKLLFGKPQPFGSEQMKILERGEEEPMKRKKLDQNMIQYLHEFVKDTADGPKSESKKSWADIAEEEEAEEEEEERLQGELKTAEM

[4] = molecular target: T3, CDC20.1, yeast two-hybrid fusion (UniProt Q9SZA4); experiment: as above
T3 sequence: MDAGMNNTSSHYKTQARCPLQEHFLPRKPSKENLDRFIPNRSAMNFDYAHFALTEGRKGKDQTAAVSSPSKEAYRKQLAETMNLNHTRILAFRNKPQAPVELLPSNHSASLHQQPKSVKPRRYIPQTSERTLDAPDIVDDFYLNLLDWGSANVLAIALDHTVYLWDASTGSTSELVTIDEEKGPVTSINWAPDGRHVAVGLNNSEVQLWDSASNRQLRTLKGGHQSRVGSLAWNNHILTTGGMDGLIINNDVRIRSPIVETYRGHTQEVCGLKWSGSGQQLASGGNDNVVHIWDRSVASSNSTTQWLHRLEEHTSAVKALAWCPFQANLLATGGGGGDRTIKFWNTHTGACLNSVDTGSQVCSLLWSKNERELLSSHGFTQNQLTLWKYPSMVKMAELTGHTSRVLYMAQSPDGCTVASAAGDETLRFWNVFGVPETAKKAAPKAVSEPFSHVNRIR

[5] = molecular target: T4, CDC20.1, split-YFP fusion (YFP^C::CDC20.1) (UniProt Q9SZA4); experiment: split reporter; BiFC with N-terminal YFP^N and YFP^C fusions co-infiltrated in N. benthamiana leaves, leaf epidermal cells scored after 3 or 4 days by confocal microscopy
T4 sequence: T3 sequence

[6] = molecular target: TDM1, split-YFP fusion (YFP^N::TDM1 and YFP^C::TDM1) (Arabidopsis thaliana) (UniProt Q9SUC3); experiment: as above

binding [1]: binds
binding [2]: binds
binding [3]: binds
binding [4]: binds
B1: TDM1-P17L, yeast two-hybrid fusion (protein, UniProt Q9SUC3 1-434)
chain: T2 sequence with P17L

binding [5]: binds
binding [6]: binds
B2: TDM1, split-YFP fusion (YFP^N::TDM1 and YFP^C::TDM1) (protein, UniProt Q9SUC3 1-434)
chain: T2 sequence

binding [3]: binds
B3: TDM1^1-294, yeast two-hybrid fusion (domain or fragment, UniProt Q9SUC3 1-294)
chain: MCPCVERRAPPGVYYTPPPARTSDHVAAMPMTERRRPPYSCSSSSERRDPFHIVHKVPSGDSPYVRAKHAQLIDKDPNRAISLFWTAINAGDRVDSALKDMAVVMKQLGRSDEGIEAIKSFRYLCSFESQDSIDNLLLELYKKSGRIEEEAVLLEHKLQTLEQGMGFGGRVSRAKRVQGKHVIMTIEQEKARILGNLGWVHLQLHNYGIAEQHYRRALGLERDKNKLCNLAICLMRMSRIPEAKSLLDDVRDSPAESECGDEPFAKSYDRAVEMLAEIESKKPEADLSEKFYAG
